Reference: publication PMC5951972
Where “and” joins values, the source holds several entries; their conditions need not be identical. Equal entries are not always repeated.

Biological target: T1, Human properdin (human), P27918
T1 chain: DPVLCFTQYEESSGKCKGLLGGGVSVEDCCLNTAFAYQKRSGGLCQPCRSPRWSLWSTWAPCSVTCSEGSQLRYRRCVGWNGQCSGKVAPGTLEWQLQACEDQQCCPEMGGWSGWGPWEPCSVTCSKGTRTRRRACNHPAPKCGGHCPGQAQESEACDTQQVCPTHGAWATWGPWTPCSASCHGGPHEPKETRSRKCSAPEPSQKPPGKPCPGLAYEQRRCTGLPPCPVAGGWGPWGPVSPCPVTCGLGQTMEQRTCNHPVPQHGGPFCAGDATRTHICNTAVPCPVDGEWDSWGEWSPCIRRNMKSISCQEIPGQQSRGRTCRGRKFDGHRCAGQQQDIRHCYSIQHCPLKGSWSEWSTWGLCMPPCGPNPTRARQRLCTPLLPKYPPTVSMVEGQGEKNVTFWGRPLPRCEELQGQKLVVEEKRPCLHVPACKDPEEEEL
Test: SEC
Conditions: remark: other sources report otherwise

- stoichiometry N: 2 and 3
B1: Human properdin, P27918 28-469 (natural protein)
chain: DPVLCFTQYEESSGKCKGLLGGGVSVEDCCLNTAFAYQKRSGGLCQPCRSPRWSLWSTWAPCSVTCSEGSQLRYRRCVGWNGQCSGKVAPGTLEWQLQACEDQQCCPEMGGWSGWGPWEPCSVTCSKGTRTRRRACNHPAPKCGGHCPGQAQESEACDTQQVCPTHGAWATWGPWTPCSASCHGGPHEPKETRSRKCSAPEPSQKPPGKPCPGLAYEQRRCTGLPPCPVAGGWGPWGPVSPCPVTCGLGQTMEQRTCNHPVPQHGGPFCAGDATRTHICNTAVPCPVDGEWDSWGEWSPCIRRNMKSISCQEIPGQQSRGRTCRGRKFDGHRCAGQQQDIRHCYSIQHCPLKGSWSEWSTWGLCMPPCGPNPTRARQRLCTPLLPKYPPTVSMVEGQGEKNVTFWGRPLPRCEELQGQKLVVEEKRPCLHVPACKDPEEEEL
modifications: here or on the partner: glycosylated (as printed: glycosylated monomer, band at 55 kDa); glycosylated (as printed: glycosylated monomer, band at 55 kDa)
